This is one part of the list.
Tests used:
Experiment in all cases: glycan array binding signal (z-score within array); higher = stronger binding
Conditions in all cases: glycan notation: IUPAC condensed, linker removed
[1] = molecular target: Gal(b1-4)GlcNAc(b1-2)[Gal(b1-4)GlcNAc(b1-6)]Man(a1-6)[GlcNAc(b1-4)][Gal(b1-4)GlcNAc(b1-2)Man(a1-3)]Man(b1-4)GlcNAc(b1-4)GlcNAc
In short: (§1)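 Glycan array data were curated from 3228 arrays in the Consortium for Functional Glycomics database and kept only where the protein sequence was available. Glycan names were converted to IUPAC-condensed notation, and columns mapping to the same glycan were averaged. The binding signal is a within-array Z-score, averaged across arrays of the same protein sequence at different concentrations or buffers and across linkers. Negative Z-scores can be read as non-binding.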

[2] = molecular target: Gal(b1-4)GlcNAc(b1-2)[Gal(b1-4)GlcNAc(b1-6)]Man(a1-6)[GlcNAc(b1-4)][Gal(b1-4)GlcNAc(b1-2)[Gal(b1-4)GlcNAc(b1-4)]Man(a1-3)]Man(b1-4)GlcNAc(b1-4)[Fuc(a1-6)]GlcNAc
In short: as §1

[3] = molecular target: Gal(b1-4)GlcNAc(b1-3)Gal(b1-3)GalNAc
In short: as §1

[4] = molecular target: Gal(b1-4)GlcNAc(b1-3)Gal(b1-3)GlcNAc
In short: as §1

[5] = molecular target: Gal(b1-4)GlcNAc(b1-3)Gal(b1-4)Glc
In short: as §1

[6] = molecular target: Gal(b1-4)GlcNAc(b1-3)Gal(b1-4)GlcNAc
In short: as §1

[7] = molecular target: Gal(b1-4)GlcNAc(b1-3)Gal(b1-4)GlcNAc(b1-2)Man(a1-3)[Gal(b1-4)GlcNAc(b1-3)Gal(b1-4)GlcNAc(b1-2)Man(a1-6)]Man(b1-4)GlcNAc(b1-4)GlcNAc
In short: as §1

[8] = molecular target: Gal(b1-4)GlcNAc(b1-3)Gal(b1-4)GlcNAc(b1-2)Man(a1-3)[Gal(b1-4)GlcNAc(b1-3)Gal(b1-4)GlcNAc(b1-2)Man(a1-6)]Man(b1-4)GlcNAc(b1-4)[Fuc(a1-6)]GlcNAc
In short: as §1

[9] = molecular target: Gal(b1-4)GlcNAc(b1-3)Gal(b1-4)GlcNAc(b1-2)[Gal(b1-4)GlcNAc(b1-3)Gal(b1-4)GlcNAc(b1-6)]Man(a1-6)[Gal(b1-4)GlcNAc(b1-3)Gal(b1-4)GlcNAc(b1-2)Man(a1-3)]Man(b1-4)GlcNAc(b1-4)GlcNAc
In short: as §1

[10] = molecular target: Gal(b1-4)GlcNAc(b1-3)Gal(b1-4)GlcNAc(b1-2)[Gal(b1-4)GlcNAc(b1-3)Gal(b1-4)GlcNAc(b1-6)]Man(a1-6)[Gal(b1-4)GlcNAc(b1-3)Gal(b1-4)GlcNAc(b1-2)Man(a1-3)]Man(b1-4)GlcNAc(b1-4)[Fuc(a1-6)]GlcNAc
In short: as §1

[11] = molecular target: Gal(b1-4)GlcNAc(b1-3)Gal(b1-4)GlcNAc(b1-3)Gal(b1-4)GlcNAc
In short: as §1

[12] = molecular target: Gal(b1-4)GlcNAc(b1-3)Gal(b1-4)GlcNAc(b1-3)Gal(b1-4)GlcNAc(b1-2)Man(a1-3)[Gal(b1-4)GlcNAc(b1-3)Gal(b1-4)GlcNAc(b1-3)Gal(b1-4)GlcNAc(b1-2)Man(a1-6)]Man(b1-4)GlcNAc(b1-4)GlcNAc
In short: as §1

[13] = molecular target: Gal(b1-4)GlcNAc(b1-3)Gal(b1-4)GlcNAc(b1-3)Gal(b1-4)GlcNAc(b1-2)Man(a1-3)[Gal(b1-4)GlcNAc(b1-3)Gal(b1-4)GlcNAc(b1-3)Gal(b1-4)GlcNAc(b1-2)Man(a1-6)]Man(b1-4)GlcNAc(b1-4)[Fuc(a1-6)]GlcNAc
In short: as §1

[14] = molecular target: Gal(b1-4)GlcNAc(b1-3)Gal(b1-4)GlcNAc(b1-3)Gal(b1-4)GlcNAc(b1-2)[Gal(b1-4)GlcNAc(b1-3)Gal(b1-4)GlcNAc(b1-3)Gal(b1-4)GlcNAc(b1-6)]Man(a1-6)[Gal(b1-4)GlcNAc(b1-3)Gal(b1-4)GlcNAc(b1-3)Gal(b1-4)GlcNAc(b1-2)Man(a1-3)]Man(b1-4)GlcNAc(b1-4)[Fuc(a1-6)]GlcNAc
In short: as §1

[15] = molecular target: Gal(b1-4)GlcNAc(b1-3)Gal(b1-4)GlcNAc(b1-3)Gal(b1-4)GlcNAc(b1-3)Gal(b1-4)GlcNAc(b1-2)Man(a1-3)[Gal(b1-4)GlcNAc(b1-3)Gal(b1-4)GlcNAc(b1-3)Gal(b1-4)GlcNAc(b1-3)Gal(b1-4)GlcNAc(b1-2)Man(a1-6)]Man(b1-4)GlcNAc(b1-4)GlcNAc
In short: as §1

[16] = molecular target: Gal(b1-4)GlcNAc(b1-3)Gal(b1-4)GlcNAc(b1-3)Gal(b1-4)GlcNAc(b1-3)Gal(b1-4)GlcNAc(b1-2)Man(a1-3)[Gal(b1-4)GlcNAc(b1-3)Gal(b1-4)GlcNAc(b1-3)Gal(b1-4)GlcNAc(b1-3)Gal(b1-4)GlcNAc(b1-2)Man(a1-6)]Man(b1-4)GlcNAc(b1-4)[Fuc(a1-6)]GlcNAc
In short: as §1

[17] = molecular target: Gal(b1-4)GlcNAc(b1-3)Gal(b1-4)GlcNAc(b1-3)Gal(b1-4)GlcNAc(b1-3)Gal(b1-4)GlcNAc(b1-2)[Gal(b1-4)GlcNAc(b1-3)Gal(b1-4)GlcNAc(b1-3)Gal(b1-4)GlcNAc(b1-3)Gal(b1-4)GlcNAc(b1-6)]Man(a1-6)[Gal(b1-4)GlcNAc(b1-3)Gal(b1-4)GlcNAc(b1-3)Gal(b1-4)GlcNAc(b1-3)Gal(b1-4)GlcNAc(b1-2)Man(a1-3)]Man(b1-4)GlcNAc(b1-4)[Fuc(a1-6)]GlcNAc
In short: as §1

[18] = molecular target: Gal(b1-4)GlcNAc(b1-3)Gal(b1-4)GlcNAc(b1-3)Gal(b1-4)GlcNAc(b1-3)Gal(b1-4)GlcNAc(b1-3)Gal(b1-4)GlcNAc(b1-2)Man(a1-3)[Gal(b1-4)GlcNAc(b1-3)Gal(b1-4)GlcNAc(b1-3)Gal(b1-4)GlcNAc(b1-3)Gal(b1-4)GlcNAc(b1-3)Gal(b1-4)GlcNAc(b1-2)Man(a1-6)]Man(b1-4)GlcNAc(b1-4)GlcNAc
In short: as §1

[19] = molecular target: Gal(b1-4)GlcNAc(b1-3)Gal(b1-4)GlcNAc(b1-3)Gal(b1-4)GlcNAc(b1-3)Gal(b1-4)GlcNAc(b1-3)Gal(b1-4)GlcNAc(b1-2)Man(a1-3)[Gal(b1-4)GlcNAc(b1-3)Gal(b1-4)GlcNAc(b1-3)Gal(b1-4)GlcNAc(b1-3)Gal(b1-4)GlcNAc(b1-3)Gal(b1-4)GlcNAc(b1-2)Man(a1-6)]Man(b1-4)GlcNAc(b1-4)[Fuc(a1-6)]GlcNAc
In short: as §1

[20] = molecular target: Gal(b1-4)GlcNAc(b1-3)Gal(b1-4)GlcNAc(b1-3)Gal(b1-4)GlcNAc(b1-3)Gal(b1-4)GlcNAc(b1-3)Gal(b1-4)GlcNAc(b1-2)[Gal(b1-4)GlcNAc(b1-3)Gal(b1-4)GlcNAc(b1-3)Gal(b1-4)GlcNAc(b1-3)Gal(b1-4)GlcNAc(b1-3)Gal(b1-4)GlcNAc(b1-6)]Man(a1-6)[Gal(b1-4)GlcNAc(b1-3)Gal(b1-4)GlcNAc(b1-3)Gal(b1-4)GlcNAc(b1-3)Gal(b1-4)GlcNAc(b1-3)Gal(b1-4)GlcNAc(b1-2)Man(a1-3)]Man(b1-4)GlcNAc(b1-4)[Fuc(a1-6)]GlcNAc
In short: as §1

[21] = molecular target: Gal(b1-4)GlcNAc(b1-3)Gal(b1-4)GlcNAc(b1-3)Gal(b1-4)GlcNAc(b1-3)Gal(b1-4)GlcNAc(b1-3)Gal(b1-4)GlcNAc(b1-3)Gal(b1-4)GlcNAc(b1-2)Man(a1-3)[Gal(b1-4)GlcNAc(b1-3)Gal(b1-4)GlcNAc(b1-3)Gal(b1-4)GlcNAc(b1-3)Gal(b1-4)GlcNAc(b1-3)Gal(b1-4)GlcNAc(b1-3)Gal(b1-4)GlcNAc(b1-2)Man(a1-6)]Man(b1-4)GlcNAc(b1-4)GlcNAc
In short: as §1

[22] = molecular target: Gal(b1-4)GlcNAc(b1-3)Gal(b1-4)GlcNAc(b1-3)GalNAc
In short: as §1

[23] = molecular target: Gal(b1-4)GlcNAc(b1-3)Gal(b1-4)GlcNAc(b1-3)[Gal(b1-4)GlcNAc(b1-3)Gal(b1-4)GlcNAc(b1-6)]GalNAc
In short: as §1

[24] = molecular target: Gal(b1-4)GlcNAc(b1-3)Gal(b1-4)GlcNAc(b1-6)[Gal(b1-3)]GalNAc
In short: as §1

[25] = molecular target: Gal(b1-4)GlcNAc(b1-3)Gal(b1-4)[Fuc(a1-3)]GlcNAc(b1-3)Gal(b1-4)[Fuc(a1-3)]GlcNAc
In short: as §1

[26] = molecular target: Gal(b1-4)GlcNAc(b1-3)GalNAc
In short: as §1

[27] = molecular target: Gal(b1-4)GlcNAc(b1-3)[Fuc(a1-3)GlcNAc(b1-6)]Gal(b1-4)Glc
In short: as §1

[28] = molecular target: Gal(b1-4)GlcNAc(b1-3)[Gal(b1-4)GlcNAc(b1-6)]Gal(b1-4)GlcNAc
In short: as §1

[29] = molecular target: Gal(b1-4)GlcNAc(b1-3)[GlcNAc(b1-6)]Gal(b1-4)GlcNAc
In short: as §1

[30] = molecular target: Gal(b1-4)GlcNAc(b1-6)Gal(b1-4)GlcNAc
In short: as §1

[31] = molecular target: Gal(b1-4)GlcNAc(b1-6)GalNAc
In short: as §1

[32] = molecular target: Gal(b1-4)GlcNAc(b1-6)[Gal(b1-3)]GalNAc
In short: as §1

[33] = molecular target: Gal(b1-4)GlcNAc(b1-6)[Gal(b1-4)GlcNAc(b1-3)]GalNAc
In short: as §1

Gal(b1-4)GlcNAc6P = molecular target: Gal(b1-4)GlcNAc6P
In short: as §1

Gal(b1-6)Gal = molecular target: Gal(b1-6)Gal
In short: as §1

Gal3S(b1-3)GalNAc = molecular target: Gal3S(b1-3)GalNAc
In short: as §1

Gal3S(b1-3)GlcNAc = molecular target: Gal3S(b1-3)GlcNAc
In short: as §1

[34] = molecular target: Gal3S(b1-3)[Fuc(a1-4)]GlcNAc
In short: as §1

B1: Epa22 (Candida glabrata) (protein)
chain: MGSSHHHHHHSSGLVPRGSHMKRALSSQNPFGYPIGCSPQSTNVIPGLTMELYSYPIVSGTPPNCYDASYVDPEYPRTGYLKRKMIGKSTGVTGSLNYKFSVEKACMVKYGNLPAGYNYNEPLTVSNFTMLLYGYFKPQTSGIHTFFVNADDLLYINFGAGNAFDCCKREDSKFKLGEYVAYDIWHVDSSKNKVSLNLEKDVYYPIRMFFNNIGKDSSLDLSFSVNGAVEHITDFSGYLYSVPDQPDACPAPIGYDTTCK
- glycan array binding signal (z-score) [1]: -0.288
- glycan array binding signal (z-score) [2]: -0.301
- glycan array binding signal (z-score) [3]: -0.257
- glycan array binding signal (z-score) [4]: -0.42
- glycan array binding signal (z-score) [5]: -0.156
- glycan array binding signal (z-score) [6]: -0.267
- glycan array binding signal (z-score) [7]: 0.073
- glycan array binding signal (z-score) [8]: -0.288
- glycan array binding signal (z-score) [9]: -0.371
- glycan array binding signal (z-score) [10]: -0.341
- glycan array binding signal (z-score) [11]: -0.334
- glycan array binding signal (z-score) [12]: -0.115
- glycan array binding signal (z-score) [13]: -0.345
- glycan array binding signal (z-score) [14]: -0.126
- glycan array binding signal (z-score) [15]: -0.34
- glycan array binding signal (z-score) [16]: -0.155
- glycan array binding signal (z-score) [17]: -0.026
- glycan array binding signal (z-score) [18]: -0.219
- glycan array binding signal (z-score) [19]: -0.231
- glycan array binding signal (z-score) [20]: -0.21
- glycan array binding signal (z-score) [21]: -0.306
- glycan array binding signal (z-score) [22]: -0.177
- glycan array binding signal (z-score) [23]: -0.072
- glycan array binding signal (z-score) [24]: -0.003
- glycan array binding signal (z-score) [25]: -0.254
- glycan array binding signal (z-score) [26]: -0.023
- glycan array binding signal (z-score) [27]: -0.343
- glycan array binding signal (z-score) [28]: -0.186
- glycan array binding signal (z-score) [29]: -0.387
- glycan array binding signal (z-score) [30]: 1.2
- glycan array binding signal (z-score) [31]: 0.329
- glycan array binding signal (z-score) [32]: -0.098
- glycan array binding signal (z-score) [33]: 0.287
- glycan array binding signal (z-score) (Gal(b1-4)GlcNAc6P): -0.305
- glycan array binding signal (z-score) (Gal(b1-6)Gal): 1.8
- glycan array binding signal (z-score) (Gal3S(b1-3)GalNAc): -0.415
- glycan array binding signal (z-score) (Gal3S(b1-3)GlcNAc): -0.4
- glycan array binding signal (z-score) [34]: -0.347
